# Source: the supplement of paper PMC9446081
# Out of some 39,000 compounds screened, about 220 (0.56%) showed activity. The list shows a part of the results.
# Tested on: Escherichia coli K-12 BW25113
# Assay: relative growth (OD600 normalised to plate interquartile mean) (fraction); higher = less growth inhibition, active = 0.2 or less
# Conditions: 50 µM; LB; incubation time: overnight (16-24 h)
# 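Further: static incubation at 37 °C against the wild-type strain, values averaged over two biological replicates.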
row,Structure (SMILES),relative growth
1,COCC#Cc1ccc([C@H]2[C@H](CO)N3C(=O)CN(C(=O)C4CCOCC4)C[C@@H]23)cc1,inactive: 0.994
2,COc1ccc(S(=O)(=O)Nc2ccc3c(c2)C(=O)N([C@@H](C)CO)C[C@@H](C)[C@@H](CN(C)C(=O)c2ccccc2)OCCCC[C@H](C)O3)cc1,inactive: 1.02
3,COc1ccc(NC(=O)N(C)C[C@H]2OCCCC[C@@H](C)Oc3ccc(NC(=O)Nc4c(C)noc4C)cc3C(=O)N([C@H](C)CO)C[C@H]2C)cc1,inactive: 0.993
4,C[C@H](CO)N1C[C@H](C)[C@@H](CN(C)Cc2ccc(Oc3ccccc3)cc2)Oc2c(NC(=O)CCCCCC(=O)Nc3ccccc3N)cccc2C1=O,inactive: 1.01
5,O=C(Cc1ccncc1)Nc1ccc2c(c1)[C@H]1C[C@H](CC(=O)N3CCc4ccccc4C3)O[C@H](CO)[C@H]1O2,inactive: 0.993
6,CC(C)NC(=O)N(C)C[C@@H]1OCCCC[C@@H](C)Oc2ccc(NC(=O)C3CCCCC3)cc2C(=O)N([C@H](C)CO)C[C@H]1C,inactive: 0.907
7,COCOC[C@H](C)N1C[C@@H](C)[C@H](CN(C)S(=O)(=O)c2ccc(F)cc2)OCCCC[C@H](C)Oc2ccc(NC(=O)Nc3ccccc3)cc2C1=O,inactive: 1.02
8,C[C@@H]1CN([C@H](C)CO)C(=O)Cc2cc(NC(=O)CCCCCC(=O)Nc3ccccc3N)ccc2O[C@@H]1CN(C)Cc1ccc(Cl)c(Cl)c1,inactive: 1.03
9,CC[C@@H](Nc1n[nH]c(=O)[nH]c1=O)C(=O)OC,inactive: 0.98
10,C[C@H]1CN([C@@H](C)CO)C(=O)c2cccc(NC(=O)c3ccncc3)c2O[C@@H]1CN(C)S(=O)(=O)c1cn(C)cn1,inactive: 0.908
11,C[C@@H]1CN([C@@H](C)CO)C(=O)c2cc(NC(=O)Nc3ccc(F)cc3)ccc2O[C@@H](C)CCCCO[C@@H]1CN(C)S(=O)(=O)c1ccc(F)cc1,inactive: 1.04
12,C[C@@H]1CN([C@H](C)CO)C(=O)c2cc(NS(C)(=O)=O)ccc2O[C@@H](C)CCCCO[C@@H]1CN(C)S(=O)(=O)c1cn(C)cn1,inactive: 1.01
13,O=C(NN=Cc1ccc([N+](=O)[O-])o1)c1ccc(O)cc1,inactive: 0.973
14,Cc1ccc(S(=O)(=O)N(C)C[C@@H]2Oc3c(NS(=O)(=O)c4ccc(F)cc4)cccc3C(=O)N([C@@H](C)CO)C[C@H]2C)cc1,inactive: 1
15,COc1ccc(S(=O)(=O)Nc2ccc3c(c2)C(=O)N([C@@H](C)CO)C[C@@H](C)[C@H](CN(C)Cc2ccc(C(F)(F)F)cc2)OCCCC[C@H](C)O3)cc1,inactive: 1.03
16,C[C@@H]1CN([C@@H](C)CO)C(=O)c2cc(NC(=O)Nc3ccc(C(F)(F)F)cc3)ccc2O[C@H]1CN(C)C(=O)Nc1ccc(F)cc1,inactive: 0.999
17,Cc1ccc(S(=O)(=O)Nc2cccc3c2O[C@@H](CN(C)S(C)(=O)=O)[C@@H](C)CN([C@@H](C)CO)C3=O)cc1,inactive: 0.984
18,C[C@@H]1CCCCO[C@H](CN(C)C(=O)Nc2ccccc2)[C@H](C)CN([C@@H](C)CO)C(=O)c2cc(NS(=O)(=O)c3ccc(Cl)cc3)ccc2O1,inactive: 1.03
19,COc1ccc(CCNC(=O)[C@@]2(Sc3ccc(C)cc3)CC(=O)N(C3CCCCC3)[C@@H]2c2ccc(CO)cc2I)cc1,inactive: 1.02
20,O=C(C[C@@H]1CC[C@@H]2NC[C@H](O)COC[C@H]2O1)NCCN1CCCC1,inactive: 0.993

row,Structure (SMILES),relative growth
1,C[C@H](CO)N1C[C@H](C)[C@@H](CN(C)Cc2ccc(-c3ccccc3)cc2)Oc2ccc(NC(=O)Nc3cccc4ccccc34)cc2CC1=O,inactive: 0.997
2,COc1ccc(CN(C)C[C@@H]2OCCCC[C@H](C)Oc3ccc(NC(=O)Nc4ccc(F)cc4)cc3C(=O)N([C@H](C)CO)C[C@@H]2C)cc1,inactive: 0.98
3,O=C(C[C@H]1CC[C@H]2[C@@H](COC[C@@H](O)CN2Cc2cccc(C(F)(F)F)c2)O1)NCCc1ccncc1,inactive: 0.999
4,C[C@H]1CCCCO[C@H](CN(C)Cc2ccc(C(=O)O)cc2)[C@@H](C)CN([C@@H](C)CO)C(=O)c2cc(NC(=O)Nc3ccc(F)cc3)ccc2O1,inactive: 1.02
5,CC(C)[C@@H](CO)N1C(=O)[C@]2(C)[C@H]3C(=O)OCCC/C=C\[C@H]3O[C@]23C=CCN(c2ccc(Cl)cc2)C(=O)[C@@H]13,inactive: 0.987
6,C[C@@H]1CN([C@@H](C)CO)C(=O)c2cc(C#CC3(O)CCCC3)cnc2O[C@@H]1CN(C)S(C)(=O)=O,inactive: 1
7,Cn1cnc(S(=O)(=O)N2C[C@@H](O)COC[C@H]3O[C@@H](CC(=O)NC4CCCC4)CC[C@@H]32)c1,inactive: 1.01
8,CC(=O)NCCc1cnc[nH]1,inactive: 0.989
9,COc1ccc(S(=O)(=O)Nc2ccc3c(c2)C(=O)N([C@@H](C)CO)C[C@@H](C)[C@H](CN(C)Cc2ccc4c(c2)OCO4)OCCCC[C@H](C)O3)cc1,inactive: 1.01
10,COc1ccccc1C#Cc1cnc2c(c1)C(=O)N([C@@H](C)CO)C[C@@H](C)[C@H](CN(C)C(=O)CN(C)C)O2,inactive: 1.01
11,C[C@H]1CN([C@@H](C)CO)C(=O)c2cccc(NC(=O)Nc3ccc4c(c3)OCO4)c2O[C@@H]1CN(C)Cc1ccc(C(=O)Nc2ccccc2N)cc1,inactive: 1.03
12,C[C@@H]1CCCCO[C@H](CN(C)Cc2ccc(Cl)c(Cl)c2)[C@H](C)CN([C@@H](C)CO)C(=O)c2cc(NS(=O)(=O)c3ccc(Cl)cc3)ccc2O1,inactive: 1.03
13,C[C@H]1CN([C@@H](C)CO)C(=O)Cc2cc(NC(=O)Nc3ccc(F)cc3)ccc2O[C@@H]1CN(C)C(=O)Nc1cccc2ccccc12,inactive: 0.989
14,C[C@@H]1CN([C@H](C)CO)C(=O)c2cccc(NC(=O)c3cnccn3)c2O[C@@H]1CN(C)C(=O)NC1CCCCC1,inactive: 0.986
15,COCCNC(=O)C[C@H]1C[C@@H]2c3cc(NS(C)(=O)=O)ccc3O[C@@H]2[C@H](CO)O1,inactive: 1.01
16,C[C@H]1CN([C@@H](C)CO)C(=O)Cc2cc(NC(=O)Cc3ccccc3)ccc2O[C@H]1CN(C)Cc1ccc(Cl)c(Cl)c1,inactive: 1.01
17,COc1nc(N2CCOCC2)nc(N)c1[N+](=O)[O-],inactive: 0.997
18,c1ccc(CN(CC2=NCCN2)c2ccccc2)cc1,inactive: 1.04
19,Cc1cc(C(=O)NN)nn1C,inactive: 0.993
20,Cc1ccc(S(=O)(=O)Nc2ccc3c(c2)C(=O)N([C@@H](C)CO)C[C@H](C)[C@H](CN(C)C(=O)Nc2cccc4ccccc24)OCCCC[C@@H](C)O3)cc1,inactive: 1.04

row,Structure (SMILES),relative growth
1,Cc1noc(C)c1S(=O)(=O)Nc1ccc2c(c1)CC(=O)N([C@@H](C)CO)C[C@@H](C)[C@@H](CN(C)Cc1ccncc1)O2,inactive: 1.01
2,C[C@@H]1CN([C@@H](C)CO)C(=O)c2cc(NC(=O)C3CCCCC3)ccc2O[C@@H](C)CCCCO[C@H]1CN(C)C(=O)c1ccncc1,inactive: 0.985
3,C[C@H](CO)N1C[C@H](C)[C@H](CN(C)C(=O)c2ccccc2)OCCCC[C@H](C)Oc2ccc(NS(=O)(=O)c3ccc(Cl)cc3)cc2C1=O,inactive: 1.04
4,Cc1noc(C)c1S(=O)(=O)Nc1ccc2c(c1)C(=O)N([C@H](C)CO)C[C@@H](C)[C@H](CN(C)C(=O)Nc1cccc3ccccc13)OCCCC[C@@H](C)O2,inactive: 1.01
5,C[C@H]1CN([C@@H](C)CO)C(=O)c2cccc(NC(=O)CCCCCC(=O)Nc3ccccc3N)c2O[C@H]1CN(C)S(C)(=O)=O,inactive: 0.969
6,Cc1ccc(S(=O)(=O)Nc2ccc3c(c2)CC(=O)N([C@@H](C)CO)C[C@H](C)[C@@H](CN(C)S(=O)(=O)c2cccs2)O3)cc1,inactive: 1
7,Cc1cn(CCN2CCN(c3ccccc3-c3cc(C#N)cc(C(=O)NCCCN4CCCC4)c3)CC2)c2ccccc12,inactive: 1.01
8,C=C(CC)C(=O)c1ccc(OCC(=O)O)c(Cl)c1Cl,inactive: 1.08
9,COc1ccc(NC(=O)N(C)C[C@@H]2OCCCC[C@H](C)Oc3ccc(NC(=O)c4ccncc4)cc3C(=O)N([C@H](C)CO)C[C@@H]2C)cc1,inactive: 1
10,COc1ccc(NC(=O)N(C)C[C@H]2OCCCC[C@@H](C)Oc3ccc(NC(=O)Nc4ccc(F)cc4)cc3C(=O)N([C@@H](C)CO)C[C@H]2C)cc1,inactive: 1.05
11,Cc1ccc(S(=O)(=O)N(C)C[C@H]2Oc3ccc(NS(C)(=O)=O)cc3C(=O)N([C@@H](C)CO)C[C@@H]2C)cc1,inactive: 0.991
12,COc1ccc(NC(=O)Nc2ccc3c(c2)CC(=O)N([C@H](C)CO)C[C@@H](C)[C@H](CN(C)CC2CCCCC2)O3)cc1,inactive: 0.893
13,CNC(=O)C[C@H]1CC[C@@H]2[C@H](COC[C@H](O)CN2C(=O)Nc2cccc(OC)c2)O1,inactive: 1
14,C[C@@H]1CN([C@H](C)CO)C(=O)c2cc(NC(=O)Nc3cccc4ccccc34)ccc2O[C@H]1CN(C)C(=O)Nc1ccc2c(c1)OCO2,inactive: 1
15,C[C@H](CO)N1C[C@H](C)[C@@H](CN(C)C(=O)Nc2cccc3ccccc23)OCCCC[C@H](C)Oc2ccc(NC(=O)C3CCCCC3)cc2C1=O,inactive: 1
16,COc1cccc(NC(=O)N2C[C@H](O)COC[C@H]3O[C@H](CC(=O)NCCCN4CCOCC4)CC[C@@H]32)c1,inactive: 0.987
17,C[C@H](CO)N1C[C@H](C)[C@H](CN(C)S(=O)(=O)c2cn(C)cn2)Oc2ccc(NC(=O)Nc3ccccc3)cc2C1=O,inactive: 0.962
18,OC[C@H]1O[C@@H](O[C@@H]2[C@@H](CO)O[C@](O)(CO)[C@H]2O)[C@H](O)[C@@H](O)[C@H]1O,inactive: 0.994
